The target of test [1] is T1, GFP-SETDB2-WT (UniProt Q96T68).
T1 sequence: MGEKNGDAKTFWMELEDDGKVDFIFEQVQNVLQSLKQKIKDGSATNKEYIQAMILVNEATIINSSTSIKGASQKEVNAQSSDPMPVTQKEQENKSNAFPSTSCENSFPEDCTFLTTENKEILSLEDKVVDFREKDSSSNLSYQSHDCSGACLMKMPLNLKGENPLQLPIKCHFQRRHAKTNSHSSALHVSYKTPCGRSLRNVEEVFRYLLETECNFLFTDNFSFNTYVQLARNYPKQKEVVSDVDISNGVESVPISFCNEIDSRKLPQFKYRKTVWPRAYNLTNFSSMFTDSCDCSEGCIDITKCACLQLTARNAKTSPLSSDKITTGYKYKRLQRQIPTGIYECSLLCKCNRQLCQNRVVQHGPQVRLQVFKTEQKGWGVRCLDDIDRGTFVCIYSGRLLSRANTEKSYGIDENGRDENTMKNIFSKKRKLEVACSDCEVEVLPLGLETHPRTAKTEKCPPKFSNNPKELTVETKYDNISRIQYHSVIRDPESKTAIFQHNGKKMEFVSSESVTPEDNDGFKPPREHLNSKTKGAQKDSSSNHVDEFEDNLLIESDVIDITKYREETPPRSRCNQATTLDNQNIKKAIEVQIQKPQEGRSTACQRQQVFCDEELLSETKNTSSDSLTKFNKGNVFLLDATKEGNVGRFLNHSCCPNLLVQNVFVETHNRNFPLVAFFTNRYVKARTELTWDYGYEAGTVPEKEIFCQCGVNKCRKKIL
The experiment in a line: co-IP; GFP-SETDB2-WT or GFP-SETDB2-2GA expressed in 293T cells, endogenous BUBR1; cell lysate; western blot. In general terms: In western blotting, separated proteins are transferred to a membrane and probed.

The chains behind the UniProt entries cited, without tags or fusion partners.
UniProt O60566: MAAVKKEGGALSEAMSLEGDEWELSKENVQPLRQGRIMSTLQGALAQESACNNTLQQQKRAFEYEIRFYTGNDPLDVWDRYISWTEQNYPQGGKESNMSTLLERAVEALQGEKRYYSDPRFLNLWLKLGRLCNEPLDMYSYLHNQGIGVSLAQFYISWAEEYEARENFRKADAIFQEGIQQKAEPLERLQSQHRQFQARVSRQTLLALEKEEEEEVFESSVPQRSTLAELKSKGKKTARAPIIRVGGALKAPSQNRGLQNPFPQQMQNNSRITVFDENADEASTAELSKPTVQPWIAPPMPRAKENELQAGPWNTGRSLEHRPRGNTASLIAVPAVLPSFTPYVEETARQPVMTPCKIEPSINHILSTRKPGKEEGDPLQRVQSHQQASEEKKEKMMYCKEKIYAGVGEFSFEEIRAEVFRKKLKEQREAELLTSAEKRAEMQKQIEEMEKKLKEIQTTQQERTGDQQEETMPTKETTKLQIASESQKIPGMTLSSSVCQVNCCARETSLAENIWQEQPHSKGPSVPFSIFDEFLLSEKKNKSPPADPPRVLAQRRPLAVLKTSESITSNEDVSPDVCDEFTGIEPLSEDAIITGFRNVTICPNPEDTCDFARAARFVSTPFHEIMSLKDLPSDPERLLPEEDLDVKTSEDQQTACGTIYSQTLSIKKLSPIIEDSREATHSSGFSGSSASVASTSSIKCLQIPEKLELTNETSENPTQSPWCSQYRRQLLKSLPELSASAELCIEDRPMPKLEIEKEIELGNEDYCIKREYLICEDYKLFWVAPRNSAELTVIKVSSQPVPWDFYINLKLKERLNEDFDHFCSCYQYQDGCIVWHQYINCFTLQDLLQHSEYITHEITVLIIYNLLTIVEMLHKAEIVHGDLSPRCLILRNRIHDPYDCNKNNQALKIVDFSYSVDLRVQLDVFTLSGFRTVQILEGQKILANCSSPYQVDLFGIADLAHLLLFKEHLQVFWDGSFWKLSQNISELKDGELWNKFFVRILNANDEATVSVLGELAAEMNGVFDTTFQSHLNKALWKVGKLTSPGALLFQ
UniProt Q12834: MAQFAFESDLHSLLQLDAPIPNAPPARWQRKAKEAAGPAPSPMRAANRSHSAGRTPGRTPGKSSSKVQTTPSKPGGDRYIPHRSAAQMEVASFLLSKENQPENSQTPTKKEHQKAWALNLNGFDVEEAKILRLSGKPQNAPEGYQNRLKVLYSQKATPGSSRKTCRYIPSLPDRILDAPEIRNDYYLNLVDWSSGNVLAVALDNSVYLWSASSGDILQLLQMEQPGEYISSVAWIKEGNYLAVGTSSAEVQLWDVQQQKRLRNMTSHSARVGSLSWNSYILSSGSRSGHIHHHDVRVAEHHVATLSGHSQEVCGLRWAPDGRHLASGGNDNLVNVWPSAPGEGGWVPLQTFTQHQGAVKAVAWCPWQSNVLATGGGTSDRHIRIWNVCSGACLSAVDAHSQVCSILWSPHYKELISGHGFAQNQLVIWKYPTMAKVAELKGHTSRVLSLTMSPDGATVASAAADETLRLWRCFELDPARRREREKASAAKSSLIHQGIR
UniProt Q13257: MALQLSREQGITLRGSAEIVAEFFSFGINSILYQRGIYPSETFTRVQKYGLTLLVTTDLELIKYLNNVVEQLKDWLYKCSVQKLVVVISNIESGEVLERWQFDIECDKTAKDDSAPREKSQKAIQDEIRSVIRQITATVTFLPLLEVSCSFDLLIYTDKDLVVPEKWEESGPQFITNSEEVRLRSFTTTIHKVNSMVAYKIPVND

Test [2] addresses T2, HA-SETDB2 (UniProt Q96T68).
T2 sequence: T1 sequence
The experiment in a line: co-IP; HA-SETDB2 overexpressed in 293T cells, endogenous BUBR1; cell lysate, beads overnight at 4 °C; western blot.

The target in test [3] is T3, SETDB2 (SET domain bifurcated histone lysine methyltransferase 2), endogenous (human (endogenous in MCF7, MDA-MB-231, SUM159PT)) (UniProt Q96T68).
T3 sequence: T1 sequence
Nature of the test: co-IP; endogenous proteins in lysates of MCF7, MDA-MB-231 and SUM159PT cells; antibody with protein A + G-agarose beads overnight at 4 °C; lysis buffer 50 mM Tris-HCl pH 7.4, 200 mM NaCl, 1 mM EDTA, 0.1% Triton X-100, 8% glycerol; western blot.

The target of test [4] is T4, His-SETDB2 (UniProt Q96T68).
T4 sequence: T1 sequence
Nature of the test: pull-down; His-SETDB2 from E. coli held on His-tag purification resin, incubated with MCF7 cell lysate supernatant overnight at 4 °C; washed with 50 mM Tris-HCl pH 7.4, 150 mM NaCl, 1 mM EDTA, 0.1% Triton X-100, 20 mM imidazole; western blot; only the target purified.

Among the data in publication PMC10909981 are binding values, retold here.

No constants are given. Whether binding was seen depends on the method and setting. In cells and extracts the contact can be indirect. Some entries that bind do so weakly or less than the wild type. Tags and fused reporters may be left off the sequences shown.

“BUBR1 (BUB1 mitotic checkpoint serine/threonine kinase B), endogenous (from UniProt O60566 1-1050)”: the binding entry in test [1], in test [2], in test [3] and in test [4] was “binds” throughout.

Take “CDC20 (cell division cycle 20), endogenous (from UniProt Q12834 1-499)”: in test [3], the binding result is “no binding”.

Take “MAD2, endogenous (from UniProt Q13257 1-205)”: the binding result in test [3] is recorded as “no binding”.

B1: MPS1, endogenous (protein, UniProt P33981 1-857)
chain: MESEDLSGRELTIDSIMNKVRDIKNKFKNEDLTDELSLNKISADTTDNSGTVNQIMMMANNPEDWLSLLLKLEKNSVPLSDALLNKLIGRYSQAIEALPPDKYGQNESFARIQVRFAELKAIQEPDDARDYFQMARANCKKFAFVHISFAQFELSQGNVKKSKQLLQKAVERGAVPLEMLEIALRNLNLQKKQLLSEEEKKNLSASTVLTAQESFSGSLGHLQNRNNSCDSRGQTTKARFLYGENMPPQDAEIGYRNSLRQTNKTKQSCPFGRVPVNLLNSPDCDVKTDDSVVPCFMKRQTSRSECRDLVVPGSKPSGNDSCELRNLKSVQNSHFKEPLVSDEKSSELIITDSITLKNKTESSLLAKLEETKEYQEPEVPESNQKQWQSKRKSECINQNPAASSNHWQIPELARKVNTEQKHTTFEQPVFSVSKQSPPISTSKWFDPKSICKTPSSNTLDDYMSCFRTPVVKNDFPPACQLSTPYGQPACFQQQQHQILATPLQNLQVLASSSANECISVKGRIYSILKQIGSGGSSKVFQVLNEKKQIYAIKYVNLEEADNQTLDSYRNEIAYLNKLQQHSDKIIRLYDYEITDQYIYMVMECGNIDLNSWLKKKKSIDPWERKSYWKNMLEAVHTIHQHGIVHSDLKPANFLIVDGMLKLIDFGIANQMQPDTTSVVKDSQVGTVNYMPPEAIKDMSSSRENGKSKSKISPKSDVWSLGCILYYMTYGKTPFQQIINQISKLHAIIDPNHEIEFPDIPEKDLQDVLKCCLKRDPKQRISIPELLAHPYVQIQTHPVNQMAKGTTEEMKYVLGQLVGLNSPNSILKAAKTLYEHYSGGESHNSSSSKTFEKKRGKK
As for B1, the binding result in test [3] is “no binding”.
